9 variants from the supplement of paper PMC12217912 can be followed below.

First the molecules themselves.
B1: TEV protease; numbered along this chain (parent)
chain: MGESLFKGPRDYNPISSSICHLTNESDGHTTSLYGIGFGPFIITNKHLFRRNNGTLVVQSLHGVFKVKDTTTLQQHLVDGRDMIIIRMPKDFPPFPQKLKFREPQREERICLVTTNFQTKSMSSMVSDTSCTFPSGDGIFWKHWIQTKDGQCGSPLVSTRDGFIVGIHSASNFTNTNNYFTSVPKNFMELLTNQEAQQWVSGWRLNADSVLWGGHKVFMVKPEEPFQPVKEATQL

The list shows a part of the results. Sequences were assembled here from the parent chain. Values near 0.05 are background.

The assay covers variants of B1. In words: raw area under fraction-flipped curve 0-4 h after induction (AUC4h, not background-subtracted), DNA-recorder readout of cleavage of the substrate (dimensionless); higher = more cleavage of the substrate by the protease variant. Conditions: temperature: 34 °C; time window: 0-4 h after rhamnose induction.
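Note: Bxb1 expression induced with 0.2% (w/v) L-rhamnose at OD600 near 0.5, cultures sampled hourly, flipped fraction per protease–substrate barcode pair counted by paired-end Illumina sequencing.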

In the case of MGESLFKGPRDYNPISSSICHLTNESDGHTTSLYGIGFGPFIITNKHLFRRNNGTLVVQSLHGVFKVKDTTTLQQHLVDGRDMIIIRMPKDFPPFPQKLKFREPQREERICLVTTNFQTKSMSSMVSDTSCTFPSGDGIFWKHWIQTKDGYCGSPLVSTRDGFIVGIHSASNFTNTNNYFTSVPKNFMELLTNQEAQQWVSGWRLNADSVLWGGHKVFMVKPEEPFQPVKEATQL [Q151Y], the “area with substrate ENLYFCS” value turned out to be 0.0636, the “area with substrate ENLYFDS” value came to 0.041, the “area with substrate ENLYFES” value is 0.0741 and the “area with substrate ENLYFFS” value is 0.076. Besides, the “area with substrate ENLYFHS” value turned out to be 0.055, the “area with substrate ENLYFIS” value was 0.0557, the “area with substrate ENLYFKS” value was 0.0678 and the “area with substrate ENLYFLS” value was 0.0633. The “area with substrate ENLYFMS” value was found to be 0.063, the “area with substrate ENLYFNS” value stood at 0.0608, the “area with substrate ENLYFPS” value stood at 0.0472 and the “area with substrate ENLYFRS” value was 0.0855. In addition, the “area with substrate ENLYFSS” value turned out to be 0.0472, the “area with substrate ENLYFTS” value came to 0.0447, the “area with substrate ENLYFWS” value was 0.0573 and the “area with substrate ENLYFYS” value is 0.0566.

With MGESLFKGPRDYNPISSSICHLTNESDGHTTSLYGIGFGPFIITNKHLFRRNNGTLVVQSLHGVFKVKDTTTLQQHLVDGRDMIIIRMPKDFPPFPQKLKFREPQREERICLVTTNFQTKSMSSMVSDTSCTFPSGDGIFWKHWIQFKDGQCGSPLVSTRDGFIVGIHSASNFTNTNNYFTSVPKNFMELLTNQEAQQWVSGWRLNADSVLWGGHKVFMVKPEEPFQPVKEATQL [T147F], the “area with substrate ENLYFCS” value is 0.0591, the “area with substrate ENLYFHS” value came out at 0.0545, the “area with substrate ENLYFIS” value turned out to be 0.055 and the “area with substrate ENLYFKS” value stood at 0.0631. In addition, the “area with substrate ENLYFTS” value is 0.061 and the “area with substrate ENLYFYS” value is 0.0567.

Regarding MGESLFKGPRDYNPISSSICHLTNESDGHTTSLYGIGFGPFIITNKHLFRRNNGTLVVQSLHGVFKVKDTTTLQQHLVDGRDMIIIRMPKDFPPFPQKLKFREPQREERICLVTTNFQTKSMSSMVSDTSCTFPSGDGIFWKHWIQTKDGQCGSPLVSTRDGFIVGIHDASNFTNTNNYFTSVPKNFMELLTNQEAQQWVSGWRLNADSVLWGGHKVFMVKPEEPFQPVKEATQL [S169D], the “area with substrate ENLYFCS” value was determined as 0.0523, the “area with substrate ENLYFES” value stood at 0.0846, the “area with substrate ENLYFFS” value was 0.0676 and the “area with substrate ENLYFHS” value was found to be 0.0579. The “area with substrate ENLYFIS” value turned out to be 0.0606, the “area with substrate ENLYFKS” value was 0.0433, the “area with substrate ENLYFMS” value is 0.0618 and the “area with substrate ENLYFNS” value came to 0.0654. Further, the “area with substrate ENLYFPS” value is 0.0635, the “area with substrate ENLYFTS” value worked out at 0.0527, the “area with substrate ENLYFVS” value is 0.0792 and the “area with substrate ENLYFWS” value is 0.0576. The “area with substrate ENLYFYS” value turned out to be 0.0683.

Turning to MGESLFKGPRDYNPISSSICHLTNESDGHTTSLYGIGFGPFIITNKHLFRRNNGTLVVQSLHGVFKVKDTTTLQQHLVDGRDMIIIRMPKDFPPFPQKLKFREPQREERICLVTTNFQTKSMSSMVSDTSCTFPSGDGIFWKHWIQTKDGQCGSPLVSTRDGFIVGIHSASNFTNTNNYFTSVPKNFMCLLTNQEAQQWVSGWRLNADSVLWGGHKVFMVKPEEPFQPVKEATQL [E189C], the “area with substrate ENLYFCS” value was found to be 0.0611, the “area with substrate ENLYFES” value was 0.0669, the “area with substrate ENLYFFS” value is 0.0619 and the “area with substrate ENLYFHS” value turned out to be 0.0481. The “area with substrate ENLYFIS” value came to 0.0653, the “area with substrate ENLYFMS” value worked out at 0.0558, the “area with substrate ENLYFNS” value was found to be 0.0639 and the “area with substrate ENLYFPS” value amounted to 0.0734. Also, the “area with substrate ENLYFRS” value was determined as 0.0626, the “area with substrate ENLYFSS” value is 0.0671, the “area with substrate ENLYFTS” value turned out to be 0.0565 and the “area with substrate ENLYFVS” value stood at 0.0609. Further, the “area with substrate ENLYFWS” value turned out to be 0.0568.

Turning to MGESLFKGPRDYNPISSSICHLTNESDGHTTSLYGIGFGPFIITNKHLFRRNNGTLVVQSLHGVFKVKDTTTLQQHLVDGRDMIIIRMPKDFPPFPQKLKFREPQREERICLVTTNFQTKSMSSMVSDTSCTFPSGDGIFWKHWIQTKDGQCGSPLVSTRDGFIVGIHSASNFTNTNNSFTSVPKNFMELLTNQEAQQWVSGWRLNADSVLWGGHKVFMVKPEEPFQPVKEATQL [Y179S], the “area with substrate ENLYFCS” value was found to be 0.0559, the “area with substrate ENLYFFS” value worked out at 0.0622, the “area with substrate ENLYFHS” value came to 0.0588 and the “area with substrate ENLYFIS” value came out at 0.0605. The “area with substrate ENLYFKS” value was determined as 0.0459, the “area with substrate ENLYFMS” value was found to be 0.0509, the “area with substrate ENLYFNS” value came to 0.0693 and the “area with substrate ENLYFPS” value was 0.0549. Besides, the “area with substrate ENLYFTS” value amounted to 0.0539, the “area with substrate ENLYFVS” value amounted to 0.0487, the “area with substrate ENLYFWS” value worked out at 0.0507 and the “area with substrate ENLYFYS” value worked out at 0.0497.

Turning to MGESLFKGPRDYNPISSSICHLTNESDGHTTSLYGIGFGPFIITNKHLFRRNNGTLVVQSLHGVFKVKDTTTLQQHLVDGRDMIIIRMPKDFPPFPQKLKFREPQREERICLVTTNFQTKSMSSMVSDTSCTFPSGDGIFWKHWIQTKDGQCGSPLVSTRDGFIVGIHSASNFTNTNNRFTSVPKNFMELLTNQEAQQWVSGWRLNADSVLWGGHKVFMVKPEEPFQPVKEATQL [Y179R], the “area with substrate ENLYFCS” value stood at 0.0711, the “area with substrate ENLYFFS” value was found to be 0.0715, the “area with substrate ENLYFHS” value came to 0.0436 and the “area with substrate ENLYFIS” value came to 0.0564. Also, the “area with substrate ENLYFLS” value was 0.0569, the “area with substrate ENLYFMS” value turned out to be 0.0543, the “area with substrate ENLYFNS” value was 0.069 and the “area with substrate ENLYFPS” value stood at 0.0345. Besides, the “area with substrate ENLYFRS” value worked out at 0.0569, the “area with substrate ENLYFSS” value was determined as 0.0611, the “area with substrate ENLYFWS” value was 0.0439 and the “area with substrate ENLYFYS” value turned out to be 0.078.

For MGESLFKGPRDYNPISSSICHLTNESDGHTTSLYGIGFGPFIITNKHLFRRNNGTLVVQSLHGVFKVKDTTTLQQHLVDGRDMIIIRMPKDFPPFPQKLKFREPQREERICLVTTNFQTKSMSSMVSDTSCTFPSGDGIFWKHWIQTKDGQCGSPLVSTRDGFIVGIHSASNFTNTNNEFTSVPKNFMELLTNQEAQQWVSGWRLNADSVLWGGHKVFMVKPEEPFQPVKEATQL [Y179E], the “area with substrate ENLYFCS” value was found to be 0.0546, the “area with substrate ENLYFES” value stood at 0.0601, the “area with substrate ENLYFFS” value is 0.0562 and the “area with substrate ENLYFGS” value stood at 0.0574. In addition, the “area with substrate ENLYFHS” value was 0.0604, the “area with substrate ENLYFKS” value turned out to be 0.0523, the “area with substrate ENLYFMS” value is 0.0641 and the “area with substrate ENLYFNS” value came out at 0.0612. Besides, the “area with substrate ENLYFRS” value was 0.0581, the “area with substrate ENLYFSS” value came out at 0.073, the “area with substrate ENLYFWS” value turned out to be 0.0608 and the “area with substrate ENLYFYS” value turned out to be 0.0689.

In the case of MGESLFKGPRDYNPISSSICHLTNESDGHTTSLYGIGFGPFIITNKHLFRRNNGTLVVQSLHGVFKVKDTTTLQQHLVDGRDMIIIRMPKDFPPFPQKLKFREPQREERICLVTTNFQTKSMSSMVSDTSCTFPSGDGIFWKHWIVTKDGQCGSPLVSTRDGFIVGIHSASNFTNTNNYFTSVPKNFMELLTNQEAQQWVSGWRLNADSVLWGGHKVFMVKPEEPFQPVKEATQL [Q146V], the “area with substrate ENLYFCS” value amounted to 0.0578, the “area with substrate ENLYFDS” value is 0.0556, the “area with substrate ENLYFES” value worked out at 0.0614 and the “area with substrate ENLYFFS” value is 0.0685. Also, the “area with substrate ENLYFHS” value was 0.0838, the “area with substrate ENLYFIS” value was found to be 0.055, the “area with substrate ENLYFKS” value was 0.068 and the “area with substrate ENLYFLS” value was determined as 0.0519. The “area with substrate ENLYFNS” value came out at 0.0646, the “area with substrate ENLYFPS” value worked out at 0.0642, the “area with substrate ENLYFRS” value came out at 0.0655 and the “area with substrate ENLYFSS” value came out at 0.0626. Moreover, the “area with substrate ENLYFTS” value stood at 0.0682 and the “area with substrate ENLYFVS” value was 0.0519.

Regarding MGESLFKGPRDYNPISSSICHLTNESDGHTTSLYGIGFGPFIITNKHLFRRNNGTLVVQSLHGVFKVKDTTTLQQHLVDGRDMIIIRMPKDFPPFPQKLKFREPQREERICLVTTNFQTKSMSSMVSDTSCTFPSGDGIFWKHWIQTKDGQCGSPLVSTRDGFIVGIHSASNFTNTNNYFTSVPKNFMELLTNHEAQQWVSGWRLNADSVLWGGHKVFMVKPEEPFQPVKEATQL [Q194H], the “area with substrate ENLYFCS” value came to 0.0675, the “area with substrate ENLYFFS” value worked out at 0.0788, the “area with substrate ENLYFHS” value was 0.0207 and the “area with substrate ENLYFIS” value stood at 0.054. The “area with substrate ENLYFKS” value was 0.0594, the “area with substrate ENLYFMS” value was determined as 0.0689, the “area with substrate ENLYFNS” value was found to be 0.0681 and the “area with substrate ENLYFPS” value was determined as 0.0519. Moreover, the “area with substrate ENLYFRS” value stood at 0.0618, the “area with substrate ENLYFSS” value stood at 0.0627, the “area with substrate ENLYFTS” value came out at 0.0557 and the “area with substrate ENLYFVS” value amounted to 0.0586. Besides, the “area with substrate ENLYFWS” value came out at 0.0068 and the “area with substrate ENLYFYS” value was 0.0657.
